Laboratory results published in the supplement of paper PMC9334596.
Where “and” joins values, the source holds several entries; their conditions need not be identical. Equal values may be shown once. In all, about 5,300 compounds were measured (“PER2::LUC luminescence relative to vehicle control”: median about 0.96, highest 2% from about 1.3 on). The list shows a part of the results.

System: mPer2Luc MEF
Assay: PER2::LUC luminescence relative to vehicle control (fold of vehicle); higher = higher PER2::LUC reporter signal
Conditions: 10 µM
Outline: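 Mouse embryonic fibroblasts carrying the mPer2Luc reporter were seeded at ~3000 cells per well in 384-well plates, 48 h before compounds from commercial libraries were added at 10 μM. Cells were grown in DMEM with 10% FBS at 37 °C and 5% CO2. Luminescence was read with the ONE-Glo luciferase assay system 24 h and 30 h after treatment, followed by an alamarBlue viability assay. The value is PER2::LUC luminescence as fold of vehicle control.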

| SMILES | PER2::LUC luminescence (time after treatment 24 h) | PER2::LUC luminescence (time after treatment 30 h) |
| --- | --- | --- |
| NCCC(=O)N[C@@H](Cc1c[nH]cn1)C(=O)O | 0.96 | 0.972 |
| CC(C)N(CC[C@H](c1ccccc1)c1cc(CO)ccc1O)C(C)C | 1.03 and 0.99 and 0.999 | 1.06 and 1.02 and 0.965 |
| CC(C)[C@H](N)C(=O)OCCOCn1cnc2c(=O)nc(N)[nH]c21 | 0.906 and 0.989 | 1.02 and 0.842 |
| Cc1cc(C)nc(NS(=O)(=O)c2ccc(N)cc2)n1 | 0.964 and 1.02 | 1.01 and 0.926 |
| CC1(C)O[C@@H]2C[C@H]3[C@@H]4C[C@H](F)C5=CC(=O)C=C[C@]5(C)[C@@]4(F)[C@@H](O)C[C@]3(C)[C@]2(C(=O)CO)O1 | 0.902 | 1.15 |
| COc1cc(NS(=O)(=O)c2ccc(N)cc2)ncn1 | 0.924 | 1.09 |
| CCCCCCCC/C=C\CCCCCCCC(=O)O.NCCO | 1.03 | 0.911 |
| COC(=O)N/N=C/c1c[n+]([O-])c2ccccc2[n+]1[O-] | 0.789 | 1.08 |
| CC(C)(Oc1ccc(Cl)cc1)C(=O)OCCOC(=O)c1cccnc1 | 1.03 | 0.989 |
| CN(C(=O)CN(CCO)CC(=O)N(C)C(C)(C)Cc1ccccc1)C(C)(C)Cc1ccccc1 | 0.645 | 0.711 |
| O=C(O)C1=CC(=C(c2ccc(O)c(C(=O)O)c2)c2ccc(O)c(C(=O)O)c2)C=CC1=O | 0.776 | 0.638 |
| CC1=NN(c2ccc(C)c(C)c2)C(=O)/C1=N\Nc1cccc(-c2cccc(C(=O)O)c2)c1O | 1.11 | 1.12 |
| NC(C(=O)O)C(O)C(=O)O (racemic) | 1.26 | 1.25 |
| CCn1c(=O)c2c(nc(/C=C/c3ccc(OC)c(OC)c3)n2C)n(CC)c1=O | 0.779 | 0.855 |
| CCCn1c(=O)c(C)cn2nc(N)nc12 | 0.976 | 0.938 |
| C/C=C\c1ccc(OC)cc1 | 1 | 1.03 |
| Cc1ccc(OCC(O)C(C)NC(C)C)c2c1CCC2 (stereo unspecified) | 0.839 | 0.772 |
| COc1cc(O)c2c(=O)c(OC)c(-c3ccc(OC)c(OC)c3)oc2c1 | 0.869 | 0.928 |
| CN1C(=O)N[C@H](Cc2c[nH]c3c(Cl)cccc23)C1=O | 0.87 | 0.819 |
| O=c1ccn([C@@H]2O[C@H](COP(=O)(O)OP(=O)(O)O)[C@@H](O)[C@H]2O)c(=O)[nH]1 | 0.987 | 1.03 |
| CC(C(O)c1ccc(O)cc1)N1CCC(Cc2ccccc2)CC1 (stereo unspecified) | 0.965 and 0.712 | 0.891 and 0.718 |
| C[C@@H]1C/C=C/C=C/C=C/C=C/[C@H](O[C@@H]2O[C@H](C)[C@@H](O)[C@H](N)[C@@H]2O)C[C@@H]2O[C@](O)(C[C@@H](O)C[C@H]3O[C@@H]3/C=C/C(=O)O1)C[C@H](O)[C@H]2C(=O)O | 0.92 and 0.933 | 1.09 and 0.88 |
| O=C(O)c1ccc[n+]([O-])c1 | 1.15 | 0.892 |
| Cc1c(N)c(=O)n(-c2ccccc2)n1C | 0.986 | 0.995 |
| O=C(/C=C/c1cccc(S(=O)(=O)Nc2ccccc2)c1)NO | 0.425 | 0.4 |
| NC[C@H]1O[C@H](O[C@H]2[C@H](O)[C@@H](O[C@H]3O[C@H](CO)[C@@H](O)[C@H](N)[C@H]3O)[C@H](N)C[C@@H]2N)[C@H](N)C[C@@H]1O | 1.25 | 1.2 |
| CSC[C@H]1O[C@@H](n2cnc3c(N)ncnc32)[C@H](O)[C@@H]1O | 0.938 | 0.773 |
| COc1ccc2c(c1)c(CC(=O)O)c(C)n2C(=O)c1ccccc1 | 0.994 | 1.01 |
